{"source": "PubChem BioAssay AID504466", "about": "(National Center for Advancing Translational Sciences (NCATS), 2011)", "note": "The campaign covered roughly 330,000 compounds. About 4,200 (1.3%) were called active. The shares of active, inactive and inconclusive entries below differ from those in the screen. Calls follow the shape of the dose curve; as a rule, active = well fitted activation curve with a large enough effect; inconclusive = small, poorly fitted or top-dose-only effect; inactive = no such curve, though single readings can be large or run the other way. A potency beside an inconclusive call is a rough fit, not a confirmed value. Potency is read from the fitted curve at half-maximal effect; tags tell the direction and shape of the fitted curve.", "data": [{"assay": "qHTS screen for small molecules that induce genotoxicity in human embryonic kidney (HEK293T) cells expressing luciferase-tagged ELG1; also: nearly all actives have a fitted effect of over 60% in size; as to activity change, positive = activation: % of control where 0% means no effect", "settings": "HEK293T ELG1-luciferase reporter, luminescence, 16 h; series mostly up to 46 µM; activity change, positive = activation: at the top concentration", "method_in_brief": "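Genotoxicity was scored as increased ELG1-luciferase reporter signal, measured by ONE-Glo luminescence (30 min, room temperature). Compound or vehicle exposure of the HEK293T reporter cells lasted 16 hr at 37°C.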", "values": [{"smiles": "CC1(C)Cc2nc3sc4c(SCC(=O)NCc5ccccc5)ncnc4c3cc2CO1", "Potency": "active: 4.11 µM"}, {"smiles": "Cc1ccc(C(=O)NCC(=O)NC2CCCCCC2)cc1", "activity change, positive = activation": "inactive: 2.84%"}, {"smiles": "O=C(/C=C/c1ccc(Cl)cc1)NC1CC2CCC1C2", "note": "(configuration not stated)", "Potency": "inconclusive: 23.1 µM [activator, partial curve, poor fit]"}, {"smiles": "Cc1ccc2nc(-c3ccc(NC(=O)CN(C)S(=O)(=O)c4ccccc4)cc3)sc2c1", "Potency": "active: 5.8 µM"}, {"smiles": "CCOC(=O)c1ccc(NC(=O)Cn2c(-c3nonc3N)nc3ccccc32)cc1", "Potency": "inconclusive: 13 µM [activator, partial curve]"}, {"smiles": "CC1(C)Cc2ccccc2C(/C(=N\\Nc2cccc(Cl)c2)C(N)=O)=N1", "activity change, positive = activation": "inactive: -4.98%"}, {"smiles": "COc1ccccc1OCCCOc1ccc(C)cc1Br", "Potency": "active: 18.4 µM"}, {"smiles": "Cc1nccn1S(=O)(=O)c1cc([N+](=O)[O-])ccc1Cl", "Potency": "inconclusive: 5.17 µM [activator, single point]"}, {"smiles": "CCN1C(=O)c2cccc3c(NC(=O)C(C)(C)C)ccc1c23", "Potency": "inconclusive: 18.4 µM [activator, partial curve, poor fit]"}, {"smiles": "CC1CCN(c2c(NCC3CCC(C(=O)NCCCc4ccccc4)CC3)c(=O)c2=O)CC1", "note": "(configuration not stated)", "activity change, positive = activation": "inactive: 2.66%"}, {"smiles": "CN(C)c1ccc(/C=C/c2ccc3ccccc3n2)cc1", "Potency": "inconclusive: 0.058 µM [activator, full curve, poor fit]"}, {"smiles": "CC(C)NC(=O)c1cc(-c2ccc(Br)cc2)on1", "Potency": "inconclusive: 4.61 µM [activator, partial curve]"}, {"smiles": "COc1cc(/C=C2\\SC(=S)N(Nc3ccccc3)C2=O)ccc1O", "Potency": "inconclusive: 29.1 µM [activator, single point]"}, {"smiles": "COc1ccc(S(=O)(=O)n2[nH]c(=O)c(CCO)c2C)cc1", "activity change, positive = activation": "inactive: -2.42%"}, {"smiles": "Cc1ccnc(NC(=O)c2cccc(S(=O)(=O)N3CCCc4ccccc43)c2)c1", "Potency": "active: 7.3 µM"}, {"smiles": "CC(C)NC(=O)c1ccc(C(C)C)cc1", "activity change, positive = activation": "inactive: 9.74%"}, {"smiles": "Cc1ccc(NC(=O)c2ccc(OC(=O)COc3ccc(Cl)c(C)c3)cc2)cc1", "Potency": "inconclusive: 11.6 µM [activator, partial curve]"}, {"smiles": "COc1cccc(C(=O)Nc2ccc(NC(=O)c3ccco3)cn2)c1", "Potency": "inconclusive: 13 µM [activator, partial curve, poor fit]"}, {"smiles": "CCOC(=O)c1c(C)nc(-c2ccccc2)nc1N", "Potency": "active: 18.4 µM"}, {"smiles": "COc1cccc(C(=O)NCCC2=CCCCC2)c1OC", "Potency": "inconclusive: 13 µM [activator, partial curve, poor fit]"}, {"smiles": "C#CCn1c(=NC(=O)c2ccco2)sc2cccc(Cl)c21", "Potency": "inconclusive: 29.1 µM [activator, partial curve, poor fit]"}, {"smiles": "CCOC(=O)C1CCN(C(=O)CNC(=O)Cn2c(C)cc3ccccc3c2=O)CC1", "activity change, positive = activation": "inactive: -0.0571%"}, {"smiles": "Cc1cc(C)cc(OCC(=O)Nc2nc(-c3cccnc3)cs2)c1", "Potency": "inconclusive: 20.6 µM [activator, single point]"}, {"smiles": "COc1ccc(/C=C2\\SC(=O)N(CCNC(=O)Cn3cnnn3)C2=O)cc1", "Potency": "active: 3.98 µM"}, {"smiles": "CCc1ccc(-c2cc(C(=O)Nn3cnnc3)c3ccccc3n2)cc1", "Potency": "inconclusive: 0.92 µM [activator, full curve]"}, {"smiles": "Cc1ccc(N2CCN(c3ccc(C)cc3)C(CC(=O)O)C2=O)cc1", "note": "(configuration not stated)", "Potency": "inconclusive: 25.9 µM [activator, partial curve, poor fit]"}, {"smiles": "CCN(CC(=O)Nc1ccc(NC(C)=O)cc1)C(=O)c1ccc2c(c1)OCO2", "activity change, positive = activation": "inactive: 0.573%"}, {"smiles": "CCOC(=O)c1sc2nc(C)cc(C)c2c1N", "Potency": "inconclusive: 11.2 µM [activator, partial curve]"}, {"smiles": "COc1ccc(-n2ncc3c(NCc4ccccn4)ncnc32)cc1", "Potency": "inconclusive: 11.2 µM [activator, partial curve, poor fit]"}, {"smiles": "CCOC(=O)c1ccc(N2Cc3ccccc3C2=NC(=O)c2ccncc2)cc1", "Potency": "inconclusive: 16.4 µM [activator, partial curve, poor fit]"}, {"smiles": "COc1ccc(/C=C/C(=O)Nc2ccncc2)cc1OC", "activity change, positive = activation": "inactive: 0.648%"}, {"smiles": "CCC(=O)Nc1cccc(-c2ccc(N3CCCCC3)nn2)c1", "Potency": "active: 2.31 µM"}, {"smiles": "Cc1cccc(NC(=O)c2cccc(NC3=NC4CS(=O)(=O)CC4S3)c2)c1", "note": "(configuration not stated)", "activity change, positive = activation": "inactive: -2.79%"}, {"smiles": "CSCc1ccc(C(=O)Nc2cccc(C)c2C)cc1", "Potency": "inconclusive: 11.6 µM [activator, partial curve]"}, {"smiles": "CCCN1C(=O)S/C(=C\\c2ccc(N3CCOCC3)o2)C1=O", "Potency": "inconclusive: 16.4 µM [activator, single point]"}, {"smiles": "CC(=O)c1ccc(S(=O)(=O)N(C)C(C)CCc2ccco2)cc1", "note": "(configuration not stated)", "activity change, positive = activation": "inactive: -3.89%"}, {"smiles": "COc1cccc(C(=O)Nc2nnc(SCC(=O)NC3CCCC3)s2)c1", "Potency": "inconclusive: 1.03 µM [activator, full curve, poor fit]"}, {"smiles": "Cc1cccc(-c2noc(-c3ccoc3C)n2)c1", "Potency": "inconclusive: 18.3 µM [activator, partial curve]"}, {"smiles": "Cc1cccn2cc(COc3ccc(-c4ccccc4)cc3)nc12", "Potency": "inconclusive: 13 µM [activator, partial curve, poor fit]"}, {"smiles": "COc1ccc(Cc2nc(-c3cccs3)no2)cc1", "Potency": "inconclusive: 14.6 µM [activator, single point]"}, {"smiles": "O=C(N/N=C/c1ccoc1)c1ccccc1O", "Potency": "inconclusive: 25.9 µM [activator, partial curve, poor fit]"}, {"smiles": "CC(=O)c1cccc(NC(=O)COC(=O)Cn2cnc3ccccc32)c1", "activity change, positive = activation": "inactive: 0.307%"}, {"smiles": "CCOc1ccccc1C(=O)Nc1cccc(-c2ccc(N3CCOCC3)nn2)c1", "Potency": "inconclusive: 3.26 µM [activator, single point]"}, {"smiles": "Cc1ccccc1NC(=O)C1Cc2ccccc2CN1C(=O)c1ccco1", "note": "(configuration not stated)", "Potency": "active: 23.1 µM"}, {"smiles": "Cc1occc1C(=O)N/N=C/c1ccc(N(C)C)cc1", "Potency": "inconclusive: 0.651 µM [activator, full curve]"}, {"smiles": "O=C(Nc1ccc(F)cc1)c1nsc(Cl)c1Cl", "Potency": "inconclusive: 16.4 µM [activator, partial curve]"}, {"smiles": "CC(C)c1ccc(NC(=O)C2CC3CCC2C3)cc1", "note": "(configuration not stated)", "Potency": "active: 20.6 µM"}, {"smiles": "CC(=O)c1ccc(NS(=O)(=O)c2cccc(C)c2)cc1", "Potency": "inconclusive: 14.6 µM [activator, partial curve, poor fit]"}, {"smiles": "O=C(CN1CCCC1)Nc1ccc(-c2nc3cc(NC(=O)CN4CCCC4)ccc3o2)cc1", "Potency": "inconclusive: 20.6 µM [activator, partial curve]"}, {"smiles": "Cc1ccc(C(=O)CCC(=O)OCC(=O)Nc2nnc(-c3ccccc3)o2)cc1", "activity change, positive = activation": "inactive: 0.385%"}, {"smiles": "CCn1c2ccccc2c2cc(NC(=O)COC(=O)c3cccc(S(=O)(=O)NC)c3)ccc21", "Potency": "inconclusive: 23.1 µM [activator, partial curve, poor fit]"}, {"smiles": "O=C(OC(C(=O)Nc1cccc(C(F)(F)F)c1)c1ccccc1)C1CCCCC1", "note": "(configuration not stated)", "activity change, positive = activation": "inactive: -4.58%"}, {"smiles": "Cc1cc(Cl)c2oc(C(=O)N(C)C3CCOC3)c(C)c2c1", "note": "(configuration not stated)", "Potency": "inconclusive: 18.3 µM [activator, partial curve]"}, {"smiles": "Cc1cccc(/C=N/NC(=O)CNc2cccc3ccccc23)n1", "Potency": "inconclusive: 20.6 µM [activator, single point]"}, {"smiles": "CC1CCCCC12NC(=O)N(CC(=O)N1CCN(Cc3ccc(C#N)cc3)CC1)C2=O", "note": "(configuration not stated)", "activity change, positive = activation": "inactive: -3.54%"}, {"smiles": "O=C1/C(=C/c2ccc(F)cc2)CCC1C1CCCC1", "note": "(configuration not stated)", "Potency": "inconclusive: 18.4 µM [activator, single point]"}, {"smiles": "Cc1cccc2nc(CSCc3ccco3)cn12", "Potency": "inconclusive: 8.2 µM [activator, partial curve]"}, {"smiles": "O=C(/C=C/Nc1cccc(O)c1)c1ccccc1", "Potency": "inconclusive: 6.51 µM [activator, single point]"}, {"smiles": "Cc1cc(NC(=O)c2ccc([N+](=O)[O-])cc2)no1", "Potency": "inconclusive: 6.51 µM [activator, partial curve]"}, {"smiles": "CCCOc1ccc(CNC(=S)N/N=C/c2ccc([N+](=O)[O-])cc2)cc1", "Potency": "inconclusive: 23.1 µM [activator, partial curve, poor fit]"}, {"smiles": "O=C(Nc1ccc(NC(=O)c2ccco2)cc1)c1ccc2c(c1)OCO2", "Potency": "inconclusive: 29.1 µM [activator, single point]"}, {"smiles": "CCn1c(=O)cc(SCC(=O)N2CCN(C(=O)c3ccco3)CC2)c2ccccc21", "Potency": "inconclusive: 18.4 µM [activator, partial curve]"}, {"smiles": "Nc1cccc2c1C(=O)N(CCOc1ccccc1F)C2=O", "Potency": "active: 0.411 µM"}, {"smiles": "CN1CCN(CC(O)COc2ccc(C34CC5CC(CC(C5)C3)C4)cc2)CC1", "note": "(configuration not stated)", "Potency": "inconclusive: 29.1 µM [activator, partial curve, poor fit]"}, {"smiles": "Cn1nc(C(F)(F)F)cc1-c1ccc(/C=C(\\C#N)C(=O)c2cccc(C(F)(F)F)c2)s1", "Potency": "inconclusive: 20.6 µM [activator, partial curve, poor fit]"}, {"smiles": "CCc1ccc(NC(=S)N2CCCC2)cc1", "Potency": "active: 18.3 µM"}, {"smiles": "CN(C)/C=C/C(=O)c1ccc(Br)cc1", "Potency": "inconclusive: 16.4 µM [activator, partial curve, poor fit]"}, {"smiles": "Oc1c(CN2CCOCC2)cc(COCc2ccccc2)c2cccnc12", "Potency": "active: 18.4 µM"}, {"smiles": "CCn1c(COc2ccccc2C)nc2ccccc21", "Potency": "inconclusive: 23.1 µM [activator, single point]"}, {"smiles": "O=C(Nc1ccc(F)cc1F)c1ccc2c(=O)n3c(nc2c1)CCC3", "Potency": "inconclusive: 8.2 µM [activator, partial curve]"}, {"smiles": "Nc1ccc2oc(-c3cc(Br)ccc3Cl)nc2c1", "Potency": "inconclusive: 10.3 µM [activator, partial curve, poor fit]"}, {"smiles": "COc1ccc(-c2nc3ccccc3nc2-c2ccccc2)cc1OC", "activity change, positive = activation": "inactive: -4.64%"}]}]}
